The values below come from the supplement of paper PMC12230231.

± gives the standard deviation of the averaged measurements. Restriction of a single-cycle SIVsab GFP reporter by TRIM5α v1-loop variants in CRFK cells. Human variants: read share among cells still uninfected after two challenges over input, higher = gained restriction. Rhesus variants: share among infected cells over input, higher = lost restriction. Reporter dose not given per row. No active / inactive call per row; the paper calls a change when both replicates lie above its controls (mean + 2 SD of stop or wild-type variants, or the top frameshift score). Residues outside the varied loop are taken from Swiss-Prot. The paper reads the human single-substitution scores as noise; they and the rhesus combinations repeat poorly (rank correlation 0.3 to 0.4), indel scores repeat only for the top variants, rhesus substitutions well (0.9).

For the data set, the system named is SIVsab (simian immunodeficiency virus of sabaeus monkeys), single-cycle GFP reporter, in CRFK cells. The experiment in a line: enrichment among infected cells over input (fold); higher = weaker restriction. As to conditions: library: human / rhesus combinations. As to the method:
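Pools of CRFK cells expressing variants of the TRIM5α v1 loop were challenged with the single-cycle reporter, sorted by GFP and sequenced; mean of two replicates.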
Take “MASGILLNVKEEVTCPICLELLTEPLSLHCGHSFCQACITANHKKSMLYKEGERSCPVCRISYQPENIQPNRHVANIVEKLREVKLSPEEGQKVDHCARHGEKLLLFCQEDSKVICWLCERSQEHRGHHTFLMEEVAQEYHVKLQTALEMLRQKQQEAEKLEADIREEKASWKIQIDYDKTNVSADFEQLREILDWEESNELQNLEKEEEDILKSLTKSETEMVQQTQYMRELISELEHRLQGSMMDLLQGVDGIIKRIENMTLKKPKTFHKNQRRVFRAPDLKGMLDMFRELTDARRYWVDVTLAPNNISHAVIAEDKRQVSSRNPQIMYQARGTRYTFPSFTNFNYCTGVLGSQSITSGKHYWEVDVSKKSAWILGVCAGFQSDAMYNIEQNENYQPKYGYWVIGLQEGVKYSVFQDGSSHTPFAPFIVPLSVIICPDRVGVFVDYEACTVSFFNITNHGFLIYKFSQCSFSKPVFPYLNPRKCTVPMTLCSPSS [rhesus TRIM5α, 332-344 = QARGTRYTFPSFT]”: the enrichment stood at 1.21 ± 0.57.

As to “MASGILLNVKEEVTCPICLELLTEPLSLHCGHSFCQACITANHKKSMLYKEGERSCPVCRISYQPENIQPNRHVANIVEKLREVKLSPEEGQKVDHCARHGEKLLLFCQEDSKVICWLCERSQEHRGHHTFLMEEVAQEYHVKLQTALEMLRQKQQEAEKLEADIREEKASWKIQIDYDKTNVSADFEQLREILDWEESNELQNLEKEEEDILKSLTKSETEMVQQTQYMRELISELEHRLQGSMMDLLQGVDGIIKRIENMTLKKPKTFHKNQRRVFRAPDLKGMLDMFRELTDARRYWVDVTLAPNNISHAVIAEDKRQVSSRNPQIMYQARGTRYTFPSFVNFNYCTGVLGSQSITSGKHYWEVDVSKKSAWILGVCAGFQSDAMYNIEQNENYQPKYGYWVIGLQEGVKYSVFQDGSSHTPFAPFIVPLSVIICPDRVGVFVDYEACTVSFFNITNHGFLIYKFSQCSFSKPVFPYLNPRKCTVPMTLCSPSS [rhesus TRIM5α, 332-344 = QARGTRYTFPSFV]”, the enrichment stood at 3.45 ± 1.7.

Regarding “MASGILLNVKEEVTCPICLELLTEPLSLHCGHSFCQACITANHKKSMLYKEGERSCPVCRISYQPENIQPNRHVANIVEKLREVKLSPEEGQKVDHCARHGEKLLLFCQEDSKVICWLCERSQEHRGHHTFLMEEVAQEYHVKLQTALEMLRQKQQEAEKLEADIREEKASWKIQIDYDKTNVSADFEQLREILDWEESNELQNLEKEEEDILKSLTKSETEMVQQTQYMRELISELEHRLQGSMMDLLQGVDGIIKRIENMTLKKPKTFHKNQRRVFRAPDLKGMLDMFRELTDARRYWVDVTLAPNNISHAVIAEDKRQVSSRNPQIMYQARGTRYTFPSLTNFNYCTGVLGSQSITSGKHYWEVDVSKKSAWILGVCAGFQSDAMYNIEQNENYQPKYGYWVIGLQEGVKYSVFQDGSSHTPFAPFIVPLSVIICPDRVGVFVDYEACTVSFFNITNHGFLIYKFSQCSFSKPVFPYLNPRKCTVPMTLCSPSS [rhesus TRIM5α, 332-344 = QARGTRYTFPSLT]”, the enrichment was found to be 0.903 ± 0.097.

With “MASGILLNVKEEVTCPICLELLTEPLSLHCGHSFCQACITANHKKSMLYKEGERSCPVCRISYQPENIQPNRHVANIVEKLREVKLSPEEGQKVDHCARHGEKLLLFCQEDSKVICWLCERSQEHRGHHTFLMEEVAQEYHVKLQTALEMLRQKQQEAEKLEADIREEKASWKIQIDYDKTNVSADFEQLREILDWEESNELQNLEKEEEDILKSLTKSETEMVQQTQYMRELISELEHRLQGSMMDLLQGVDGIIKRIENMTLKKPKTFHKNQRRVFRAPDLKGMLDMFRELTDARRYWVDVTLAPNNISHAVIAEDKRQVSSRNPQIMYQARGTRYTFPSLVNFNYCTGVLGSQSITSGKHYWEVDVSKKSAWILGVCAGFQSDAMYNIEQNENYQPKYGYWVIGLQEGVKYSVFQDGSSHTPFAPFIVPLSVIICPDRVGVFVDYEACTVSFFNITNHGFLIYKFSQCSFSKPVFPYLNPRKCTVPMTLCSPSS [rhesus TRIM5α, 332-344 = QARGTRYTFPSLV]”, the enrichment was determined as 1.11 ± 0.81.

For “MASGILLNVKEEVTCPICLELLTEPLSLHCGHSFCQACITANHKKSMLYKEGERSCPVCRISYQPENIQPNRHVANIVEKLREVKLSPEEGQKVDHCARHGEKLLLFCQEDSKVICWLCERSQEHRGHHTFLMEEVAQEYHVKLQTALEMLRQKQQEAEKLEADIREEKASWKIQIDYDKTNVSADFEQLREILDWEESNELQNLEKEEEDILKSLTKSETEMVQQTQYMRELISELEHRLQGSMMDLLQGVDGIIKRIENMTLKKPKTFHKNQRRVFRAPDLKGMLDMFRELTDARRYWVDVTLAPNNISHAVIAEDKRQVSSRNPQIMYQARGTRYTFPTFTNFNYCTGVLGSQSITSGKHYWEVDVSKKSAWILGVCAGFQSDAMYNIEQNENYQPKYGYWVIGLQEGVKYSVFQDGSSHTPFAPFIVPLSVIICPDRVGVFVDYEACTVSFFNITNHGFLIYKFSQCSFSKPVFPYLNPRKCTVPMTLCSPSS [rhesus TRIM5α, 332-344 = QARGTRYTFPTFT]”, the enrichment was found to be 0.831 ± 0.1.

With “MASGILLNVKEEVTCPICLELLTEPLSLHCGHSFCQACITANHKKSMLYKEGERSCPVCRISYQPENIQPNRHVANIVEKLREVKLSPEEGQKVDHCARHGEKLLLFCQEDSKVICWLCERSQEHRGHHTFLMEEVAQEYHVKLQTALEMLRQKQQEAEKLEADIREEKASWKIQIDYDKTNVSADFEQLREILDWEESNELQNLEKEEEDILKSLTKSETEMVQQTQYMRELISELEHRLQGSMMDLLQGVDGIIKRIENMTLKKPKTFHKNQRRVFRAPDLKGMLDMFRELTDARRYWVDVTLAPNNISHAVIAEDKRQVSSRNPQIMYQARGTRYTFPTFVNFNYCTGVLGSQSITSGKHYWEVDVSKKSAWILGVCAGFQSDAMYNIEQNENYQPKYGYWVIGLQEGVKYSVFQDGSSHTPFAPFIVPLSVIICPDRVGVFVDYEACTVSFFNITNHGFLIYKFSQCSFSKPVFPYLNPRKCTVPMTLCSPSS [rhesus TRIM5α, 332-344 = QARGTRYTFPTFV]”, the enrichment stood at 2.91 ± 0.63.

In the case of “MASGILLNVKEEVTCPICLELLTEPLSLHCGHSFCQACITANHKKSMLYKEGERSCPVCRISYQPENIQPNRHVANIVEKLREVKLSPEEGQKVDHCARHGEKLLLFCQEDSKVICWLCERSQEHRGHHTFLMEEVAQEYHVKLQTALEMLRQKQQEAEKLEADIREEKASWKIQIDYDKTNVSADFEQLREILDWEESNELQNLEKEEEDILKSLTKSETEMVQQTQYMRELISELEHRLQGSMMDLLQGVDGIIKRIENMTLKKPKTFHKNQRRVFRAPDLKGMLDMFRELTDARRYWVDVTLAPNNISHAVIAEDKRQVSSRNPQIMYQARGTRYTFPTLTNFNYCTGVLGSQSITSGKHYWEVDVSKKSAWILGVCAGFQSDAMYNIEQNENYQPKYGYWVIGLQEGVKYSVFQDGSSHTPFAPFIVPLSVIICPDRVGVFVDYEACTVSFFNITNHGFLIYKFSQCSFSKPVFPYLNPRKCTVPMTLCSPSS [rhesus TRIM5α, 332-344 = QARGTRYTFPTLT]”, the enrichment was found to be 0.838 ± 0.43.

As for “MASGILLNVKEEVTCPICLELLTEPLSLHCGHSFCQACITANHKKSMLYKEGERSCPVCRISYQPENIQPNRHVANIVEKLREVKLSPEEGQKVDHCARHGEKLLLFCQEDSKVICWLCERSQEHRGHHTFLMEEVAQEYHVKLQTALEMLRQKQQEAEKLEADIREEKASWKIQIDYDKTNVSADFEQLREILDWEESNELQNLEKEEEDILKSLTKSETEMVQQTQYMRELISELEHRLQGSMMDLLQGVDGIIKRIENMTLKKPKTFHKNQRRVFRAPDLKGMLDMFRELTDARRYWVDVTLAPNNISHAVIAEDKRQVSSRNPQIMYQARGTRYTFPTLVNFNYCTGVLGSQSITSGKHYWEVDVSKKSAWILGVCAGFQSDAMYNIEQNENYQPKYGYWVIGLQEGVKYSVFQDGSSHTPFAPFIVPLSVIICPDRVGVFVDYEACTVSFFNITNHGFLIYKFSQCSFSKPVFPYLNPRKCTVPMTLCSPSS [rhesus TRIM5α, 332-344 = QARGTRYTFPTLV]”, the enrichment was found to be 1.09 ± 1.
